# Measured values published in the supplement of paper PMC8728848.
# The other results are listed elsewhere or left out.
# B1: PX14379A-bvu-539-28-539 (Bacteroides vulgatus) (protein)
# chain: EPYSEIIEEDYVPTEADEIALLATTYSQLRFVMDWYGLFDLQEESGDVIVTPTRPNGWDDGGTYKQMHKHTWDNQQGQPQSIWDYCYKGIANANKILKRADEGFFTEESKPKVVAEVKGVRALWYSILCDTHGNIPIQTSFSEEVPVQSTRKQVFDFIINELKEVMPNLPTEVNKSTYGRLTQWGAKCLMARMYLNAGVYTGTPMWNECLEQCNDIINSGLFSLETNYTDIFKTENSGCVETIFAIPYDEVYNEGDNNGPVFGAHMKFLSSNSRKVFNMQTTPWGGSAANPQFINSYDPDDMRLKYTWLQGDQYSPDGVLITTFPNKLPSIYKTDTDDGYRVGKYEIKVGAKSLLSNDFPYFRYTEVLLMKAECLLRLGQNETEAAHIVSQIRERAFRESAHPEKATVDAAWLKGDTHINYGTLDEKGQIDDAGNTEVVELGGLYDEWGWEFAAEARRRTDMIRFGTYQKKSWFNHTPTANDLNGNSILFPIHLDHLNTNPNLQQNPGYAGK
# Columns and labels:
# Experiment in all cases: glycan array binding signal (z-score within array); higher = stronger binding
# Details in all cases: glycan notation: IUPAC condensed, linker removed
# Gal3S6S(b1-4)GlcNAc = target: Gal3S6S(b1-4)GlcNAc
# Summary of the method: (§1)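 Columns mapping to the same glycan were averaged after glycan names were converted to IUPAC-condensed notation. The data come from 3228 arrays in the Consortium for Functional Glycomics database, limited to those with an available protein sequence. Binding is reported as a within-array Z-score averaged across arrays of one protein sequence and across linkers.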
# Gal3S6S(b1-4)GlcNAc6S = target: Gal3S6S(b1-4)GlcNAc6S
# Summary of the method: as §1
# Gal4S(b1-4)GlcNAc = target: Gal4S(b1-4)GlcNAc
# Summary of the method: as §1
# Gal4S6S(b1-4)GlcNAc = target: Gal4S6S(b1-4)GlcNAc
# Summary of the method: as §1
# Gal6P(b1-4)GlcNAc = target: Gal6P(b1-4)GlcNAc
# Summary of the method: as §1
# Gal6S(b1-3)GlcNAc = target: Gal6S(b1-3)GlcNAc
# Summary of the method: as §1
# Gal6S(b1-3)GlcNAc6S = target: Gal6S(b1-3)GlcNAc6S
# Summary of the method: as §1
# Gal6S(b1-4)Glc = target: Gal6S(b1-4)Glc
# Summary of the method: as §1
# Gal6S(b1-4)Glc6S = target: Gal6S(b1-4)Glc6S
# Summary of the method: as §1
# Gal6S(b1-4)GlcNAc = target: Gal6S(b1-4)GlcNAc
# Summary of the method: as §1
# Gal6S(b1-4)GlcNAc6S = target: Gal6S(b1-4)GlcNAc6S
# Summary of the method: as §1
# GalNAc(a1-3)Gal = target: GalNAc(a1-3)Gal
# Summary of the method: as §1
# GalNAc(a1-3)GalNAc = target: GalNAc(a1-3)GalNAc
# Summary of the method: as §1
# [1] = target: GalNAc(a1-3)GalNAc(b1-3)Gal(a1-4)Gal(b1-4)Glc
# Summary of the method: as §1
# [2] = target: GalNAc(a1-3)GalNAc(b1-3)Gal(a1-4)Gal(b1-4)GlcNAc
# Summary of the method: as §1
# GalNAc(b1-3)Gal = target: GalNAc(b1-3)Gal
# Summary of the method: as §1
# [3] = target: GalNAc(b1-3)Gal(a1-4)Gal(b1-4)GlcNAc
# Summary of the method: as §1
# [4] = target: GalNAc(b1-3)Gal(a1-4)Gal(b1-4)GlcNAc(b1-3)Gal(b1-4)Glc
# Summary of the method: as §1
# [5] = target: GalNAc(b1-3)Gal(a1-6)Gal(b1-4)Glc
# Summary of the method: as §1
# GalNAc(b1-3)GalNAc = target: GalNAc(b1-3)GalNAc
# Summary of the method: as §1
# GalNAc(b1-3)GlcNAc = target: GalNAc(b1-3)GlcNAc
# Summary of the method: as §1
# GalNAc(b1-4)Gal(b1-4)Glc = target: GalNAc(b1-4)Gal(b1-4)Glc
# Summary of the method: as §1
# GalNAc(b1-4)GlcNAc = target: GalNAc(b1-4)GlcNAc
# Summary of the method: as §1
# [6] = target: GalNAc(b1-4)GlcNAc(b1-2)Man
# Summary of the method: as §1
# [7] = target: GalNAc(b1-4)GlcNAc(b1-2)Man(a1-3)[GalNAc(b1-4)GlcNAc(b1-2)Man(a1-6)]Man(b1-4)GlcNAc(b1-4)GlcNAc
# Summary of the method: as §1
# [8] = target: GalNAc(b1-4)GlcNAc(b1-3)GalNAc(b1-4)GlcNAc
# Summary of the method: as §1
# GalNAc(b1-4)GlcNAc6S = target: GalNAc(b1-4)GlcNAc6S
# Summary of the method: as §1
# GalNAc(b1-6)GalNAc = target: GalNAc(b1-6)GalNAc
# Summary of the method: as §1
# GalNAc3S(b1-4)GlcNAc = target: GalNAc3S(b1-4)GlcNAc
# Summary of the method: as §1
# GalNAc3S(b1-4)GlcNAc3S = target: GalNAc3S(b1-4)GlcNAc3S
# Summary of the method: as §1
# [9] = target: GalNAc3S(b1-4)[Fuc(a1-3)]GlcNAc
# Summary of the method: as §1
# GalNAc4S6S(b1-4)GlcNAc = target: GalNAc4S6S(b1-4)GlcNAc
# Summary of the method: as §1
# GalNAc6S(b1-4)GlcNAc = target: GalNAc6S(b1-4)GlcNAc
# Summary of the method: as §1
# Glc(a1-4)Glc = target: Glc(a1-4)Glc
# Summary of the method: as §1
# [10] = target: Glc(a1-4)Glc(a1-4)Glc(a1-4)Glc
# Summary of the method: as §1
# Glc(a1-6)Glc(a1-6)Glc = target: Glc(a1-6)Glc(a1-6)Glc
# Summary of the method: as §1
# [11] = target: Glc(a1-6)Glc(a1-6)Glc(a1-6)Glc
# Summary of the method: as §1
# Glc(b1-4)Glc = target: Glc(b1-4)Glc
# Summary of the method: as §1
binder,measurement,setting,value
B1,glycan array binding signal (z-score),Gal3S6S(b1-4)GlcNAc,-0.387
same,glycan array binding signal (z-score),Gal3S6S(b1-4)GlcNAc6S,-0.19
same,glycan array binding signal (z-score),Gal4S(b1-4)GlcNAc,-0.294
same,glycan array binding signal (z-score),Gal4S6S(b1-4)GlcNAc,-0.533
same,glycan array binding signal (z-score),Gal6P(b1-4)GlcNAc,-0.206
same,glycan array binding signal (z-score),Gal6S(b1-3)GlcNAc,-0.343
same,glycan array binding signal (z-score),Gal6S(b1-3)GlcNAc6S,0.905
same,glycan array binding signal (z-score),Gal6S(b1-4)Glc,-0.064
same,glycan array binding signal (z-score),Gal6S(b1-4)Glc6S,-0.28
same,glycan array binding signal (z-score),Gal6S(b1-4)GlcNAc,-0.094
same,glycan array binding signal (z-score),Gal6S(b1-4)GlcNAc6S,-0.175
same,glycan array binding signal (z-score),GalNAc(a1-3)Gal,0.01
same,glycan array binding signal (z-score),GalNAc(a1-3)GalNAc,-0.477
same,glycan array binding signal (z-score),[1],-0.138
same,glycan array binding signal (z-score),[2],-0.436
same,glycan array binding signal (z-score),GalNAc(b1-3)Gal,-0.484
same,glycan array binding signal (z-score),[3],-0.271
same,glycan array binding signal (z-score),[4],0.841
same,glycan array binding signal (z-score),[5],2.98
same,glycan array binding signal (z-score),GalNAc(b1-3)GalNAc,-0.551
same,glycan array binding signal (z-score),GalNAc(b1-3)GlcNAc,-0.041
same,glycan array binding signal (z-score),GalNAc(b1-4)Gal(b1-4)Glc,-0.5
same,glycan array binding signal (z-score),GalNAc(b1-4)GlcNAc,-0.26
same,glycan array binding signal (z-score),[6],-0.549
same,glycan array binding signal (z-score),[7],-0.102
same,glycan array binding signal (z-score),[8],2.28
same,glycan array binding signal (z-score),GalNAc(b1-4)GlcNAc6S,-0.334
same,glycan array binding signal (z-score),GalNAc(b1-6)GalNAc,-0.384
same,glycan array binding signal (z-score),GalNAc3S(b1-4)GlcNAc,-0.46
same,glycan array binding signal (z-score),GalNAc3S(b1-4)GlcNAc3S,-0.149
same,glycan array binding signal (z-score),[9],0.013
same,glycan array binding signal (z-score),GalNAc4S6S(b1-4)GlcNAc,-0.399
same,glycan array binding signal (z-score),GalNAc6S(b1-4)GlcNAc,2.64
same,glycan array binding signal (z-score),Glc(a1-4)Glc,-0.369
same,glycan array binding signal (z-score),[10],-0.043
same,glycan array binding signal (z-score),Glc(a1-6)Glc(a1-6)Glc,-0.415
same,glycan array binding signal (z-score),[11],-0.152
same,glycan array binding signal (z-score),Glc(b1-4)Glc,-0.49
